Results from US20230250147A1 (Sanofi, published 2023).

B1: GLP-1RA/FGF21 Fc fusion protein SEQ ID NO: 92 (Fc fusion)
chain: HGEGTFTSDLSIQLEEEAVRLFIEWLLATGPVSGAPPPSGGGGGGGSGGGGSGGGGSA[… human IgG4 Fc with changes …]GGGSGSAHPIPDSSPLLQFGGQVRQRYLYTDDACQTEAHLEIREDGTVGGAADQSPESLLQLKALKPGVIQILGVKTSRFLCQRPDGALYGSLHFDPEACSFRELLLEDGYNVYQSEAHGLPLHLPGCKSPHRDPAPRGPARFLPLPGLPPAPPEPPGILAPQPPDVGSSDPLSMVGSQGRSPSYAS
B2: GLP-1RA/FGF21 Fc fusion protein SEQ ID NO: 93 (Fc fusion)
chain: HGEGTFTSDLSIQLEEEAVQEFIEWLLATGPVSGAPPPSGGGGGGGSGGGGSGGGGSA[… human IgG4 Fc with changes …]GGGSGSAHPIPDSSPLLQFGGQVRQRYLYTDDACQTEAHLEIREDGTVGGAADQSPESLLQLKALKPGVIQILGVKTSRFLCQRPDGALYGSLHFDPEACSFRELLLEDGYNVYQSEAHGLPLHLPGCKSPHRDPAPRGPARFLPLPGLPPAPPEPPGILAPQPPDVGSSDPLSMVGSQGRSPSYAS
B3: GLP-1RA/FGF21 Fc fusion protein SEQ ID NO: 94 (Fc fusion)
chain: HGEGTFTSDLSIQLEEEAVQLFIEWLLATGPVSGAPPPSGGGGGGGSGGGGSGGGGSA[… human IgG4 Fc with changes …]GGGSGSAHPIPDSSPLLQFGGQVRQRYLYTDDACQTEAHLEIREDGTVGGAADQSPESLLQLKALKPGVIQILGVKTSRFLCQRPDGALYGSLHFDPEACSFRELLLEDGYNVYQSEAHGLPLHLPGCKSPHRDPAPRGPARFLPLPGLPPAPPEPPGILAPQPPDVGSSDPLSMVGSQGRSPSYAS
B4: GLP-1RA/FGF21 Fc fusion protein SEQ ID NO: 97 (Fc fusion)
chain: HGEGTFTSDLSILLEEEAVRLFIEWLLATGPVSGAPPPSGGGGGGGSGGGGSGGGGSA[… human IgG4 Fc with changes …]GGGSGSAHPIPDSSPLLQFGGQVRQRYLYTDDACQTEAHLEIREDGTVGGAADQSPESLLQLKALKPGVIQILGVKTSRFLCQRPDGALYGSLHFDPEACSFRELLLEDGYNVYQSEAHGLPLHLPGCKSPHRDPAPRGPARFLPLPGLPPAPPEPPGILAPQPPDVGSSDPLSMVGSQGRSPSYAS
B5: GLP-1RA/FGF21 Fc fusion protein SEQ ID NO: 100 (Fc fusion)
chain: HGEGTFTSDLSKQLEEEAVRLFIEWLLATGPSSGEPPPEGGGGGGGSGGGGSGGGGSA[… human IgG4 Fc with changes …]GGGSGSAHPIPDSSPLLQFGGQVRQRYLYTDDACQTEAHLEIREDGTVGGAADQSPESLLQLKALKPGVIQILGVKTSRFLCQRPDGALYGSLHFDPEACSFRELLLEDGYNVYQSEAHGLPLHLPGCKSPHRDPAPRGPARFLPLPGLPPAPPEPPGILAPQPPDVGSSDPLSMVGSQGRSPSYAS
B6: GLP-1RA/FGF21 Fc fusion protein SEQ ID NO: 101 (Fc fusion)
chain: HAQGTFTSDLSKQLESRRAQEFIEWLLATGPESGAPPPSGGGGGGGSGGGGSGGGGSA[… human IgG4 Fc with changes …]GGGSGSAHPIPDSSPLLQFGGQVRQRYLYTDDACQTEAHLEIREDGTVGGAADQSPESLLQLKALKPGVIQILGVKTSRFLCQRPDGALYGSLHFDPEACSFRELLLEDGYNVYQSEAHGLPLHLPGCKSPHRDPAPRGPARFLPLPGLPPAPPEPPGILAPQPPDVGSSDPLSMVGSQGRSPSYAS
B7: GLP-1RA/FGF21 Fc fusion protein SEQ ID NO: 102 (Fc fusion)
chain: HSQGTFTSDLSKQLESRRARRFIEWLLATGPESGAPPPSGGGGGGGSGGGGSGGGGSA[… human IgG4 Fc with changes …]GGGSGSAHPIPDSSPLLQFGGQVRQRYLYTDDACQTEAHLEIREDGTVGGAADQSPESLLQLKALKPGVIQILGVKTSRFLCQRPDGALYGSLHFDPEACSFRELLLEDGYNVYQSEAHGLPLHLPGCKSPHRDPAPRGPARFLPLPGLPPAPPEPPGILAPQPPDVGSSDPLSMVGSQGRSPSYAS
B8: GLP-1RA/FGF21 Fc fusion protein SEQ ID NO: 105 (Fc fusion)
chain: HGEGTFTSDKSQLLEERLAHLFIEWLIKGGHSSIKPPPKGGGGGGGSGGGGSGGGGSA[… human IgG4 Fc with changes …]GGGSGSAHPIPDSSPLLQFGGQVRQRYLYTDDACQTEAHLEIREDGTVGGAADQSPESLLQLKALKPGVIQILGVKTSRFLCQRPDGALYGSLHFDPEACSFRELLLEDGYNVYQSEAHGLPLHLPGCKSPHRDPAPRGPARFLPLPGLPPAPPEPPGILAPQPPDVGSSDPLSMVGSQGRSPSYAS
B9: GLP-1RA/FGF21 Fc fusion protein SEQ ID NO: 106 (Fc fusion)
chain: HGEGTFTSDKSQLLEERLAHLFIEWLIAGGHSSGRPPPKGGGGGGGSGGGGSGGGGSA[… human IgG4 Fc with changes …]GGGSGSAHPIPDSSPLLQFGGQVRQRYLYTDDACQTEAHLEIREDGTVGGAADQSPESLLQLKALKPGVIQILGVKTSRFLCQRPDGALYGSLHFDPEACSFRELLLEDGYNVYQSEAHGLPLHLPGCKSPHRDPAPRGPARFLPLPGLPPAPPEPPGILAPQPPDVGSSDPLSMVGSQGRSPSYAS
B10: GLP-1RA/FGF21 Fc fusion protein SEQ ID NO: 107 (Fc fusion)
chain: YGEGTFTSDKSQLLEERLAHLFIEWLIAGGHSKIRPPPKGGGGGGGSGGGGSGGGGSA[… human IgG4 Fc with changes …]GGGSGSAHPIPDSSPLLQFGGQVRQRYLYTDDACQTEAHLEIREDGTVGGAADQSPESLLQLKALKPGVIQILGVKTSRFLCQRPDGALYGSLHFDPEACSFRELLLEDGYNVYQSEAHGLPLHLPGCKSPHRDPAPRGPARFLPLPGLPPAPPEPPGILAPQPPDVGSSDPLSMVGSQGRSPSYAS
B11: GLP-1RA/FGF21 Fc fusion protein SEQ ID NO: 108 (Fc fusion)
chain: YGEGTFTSDKSQLLEERLVHLFIEWLIAGGHSKIKPPPKGGGGGGGSGGGGSGGGGSA[… human IgG4 Fc with changes …]GGGSGSAHPIPDSSPLLQFGGQVRQRYLYTDDACQTEAHLEIREDGTVGGAADQSPESLLQLKALKPGVIQILGVKTSRFLCQRPDGALYGSLHFDPEACSFRELLLEDGYNVYQSEAHGLPLHLPGCKSPHRDPAPRGPARFLPLPGLPPAPPEPPGILAPQPPDVGSSDPLSMVGSQGRSPSYAS
B12: GLP-1RA/FGF21 Fc fusion protein SEQ ID NO: 109 (Fc fusion)
chain: YGEGTFTSDKSQLLEKELAHLFIEWLIAGGHKSGRPSPKGGGGGGGSGGGGSGGGGSA[… human IgG4 Fc with changes …]GGGSGSAHPIPDSSPLLQFGGQVRQRYLYTDDACQTEAHLEIREDGTVGGAADQSPESLLQLKALKPGVIQILGVKTSRFLCQRPDGALYGSLHFDPEACSFRELLLEDGYNVYQSEAHGLPLHLPGCKSPHRDPAPRGPARFLPLPGLPPAPPEPPGILAPQPPDVGSSDPLSMVGSQGRSPSYAS
B13: GLP-1RA/FGF21 Fc fusion protein SEQ ID NO: 112 (Fc fusion)
chain: HGEGTFTSDKSQLLEKRLAHLFIEWLLAGGPSSGRPPPKGGGGGGGSGGGGSGGGGSA[… human IgG4 Fc with changes …]GGGSGSAHPIPDSSPLLQFGGQVRQRYLYTDDACQTEAHLEIREDGTVGGAADQSPESLLQLKALKPGVIQILGVKTSRFLCQRPDGALYGSLHFDPEACSFRELLLEDGYNVYQSEAHGLPLHLPGCKSPHRDPAPRGPARFLPLPGLPPAPPEPPGILAPQPPDVGSSDPLSMVGSQGRSPSYAS
B14: GLP-1RA/FGF21 Fc fusion protein SEQ ID NO: 113 (Fc fusion)
chain: YGEGTFTSDKSQLLEKRLAHLFIEWLIKGGHSSIRPPPKGGGGGGGSGGGGSGGGGSA[… human IgG4 Fc with changes …]GGGSGSAHPIPDSSPLLQFGGQVRQRYLYTDDACQTEAHLEIREDGTVGGAADQSPESLLQLKALKPGVIQILGVKTSRFLCQRPDGALYGSLHFDPEACSFRELLLEDGYNVYQSEAHGLPLHLPGCKSPHRDPAPRGPARFLPLPGLPPAPPEPPGILAPQPPDVGSSDPLSMVGSQGRSPSYAS
B15: GLP-1RA/FGF21 Fc fusion protein SEQ ID NO: 115 (Fc fusion)
chain: YGEGTFTSDKSQLLEKRLAHLFIEWLIKGGHSSIKPPPKGGGGGGGSGGGGSGGGGSA[… human IgG4 Fc with changes …]GGGSGSAHPIPDSSPLLQFGGQVRQRYLYTDDACQTEAHLEIREDGTVGGAADQSPESLLQLKALKPGVIQILGVKTSRFLCQRPDGALYGSLHFDPEACSFRELLLEDGYNVYQSEAHGLPLHLPGCKSPHRDPAPRGPARFLPLPGLPPAPPEPPGILAPQPPDVGSSDPLSMVGSQGRSPSYAS
B16: GLP-1RA/FGF21 Fc fusion protein SEQ ID NO: 116 (Fc fusion)
chain: HGEGTFTSDKSQLLEKRLAHLFIEWLIAGGPSKGKPPPKGGGGGGGSGGGGSGGGGSA[… human IgG4 Fc with changes …]GGGSGSAHPIPDSSPLLQFGGQVRQRYLYTDDACQTEAHLEIREDGTVGGAADQSPESLLQLKALKPGVIQILGVKTSRFLCQRPDGALYGSLHFDPEACSFRELLLEDGYNVYQSEAHGLPLHLPGCKSPHRDPAPRGPARFLPLPGLPPAPPEPPGILAPQPPDVGSSDPLSMVGSQGRSPSYAS
B17: GLP-1RA/FGF21 Fc fusion protein SEQ ID NO: 118 (Fc fusion)
chain: HGEGTFTSDKSQLLEKRLAHLFIEWLIAGGHSKIKYPPKGGGGGGGSGGGGSGGGGSA[… human IgG4 Fc with changes …]GGGSGSAHPIPDSSPLLQFGGQVRQRYLYTDDACQTEAHLEIREDGTVGGAADQSPESLLQLKALKPGVIQILGVKTSRFLCQRPDGALYGSLHFDPEACSFRELLLEDGYNVYQSEAHGLPLHLPGCKSPHRDPAPRGPARFLPLPGLPPAPPEPPGILAPQPPDVGSSDPLSMVGSQGRSPSYAS
B18: GLP-1RA/FGF21 Fc fusion protein SEQ ID NO: 121 (Fc fusion)
chain: HGEGTFTSDKSQLLEKRLAHLFIEWLIAGGPSSGRYPPKGGGGGGGSGGGGSGGGGSA[… human IgG4 Fc with changes …]GGGSGSAHPIPDSSPLLQFGGQVRQRYLYTDDACQTEAHLEIREDGTVGGAADQSPESLLQLKALKPGVIQILGVKTSRFLCQRPDGALYGSLHFDPEACSFRELLLEDGYNVYQSEAHGLPLHLPGCKSPHRDPAPRGPARFLPLPGLPPAPPEPPGILAPQPPDVGSSDPLSMVGSQGRSPSYAS

molecular target: human glucagon-like peptide-1 (GLP-1) receptor (human, UniProt P43220 24-463); test: cell-based or functional assay

In order of falling “HTRF cAMP EC50” value:
1. B11  0.326 nM
2. B12  0.278 nM
3. B10  0.186 nM
4. B7  0.17 nM
5. B14  0.159 nM
6. B15  0.0922 nM
7. B6  0.0835 nM
8. B3  0.0665 nM
9. B1  0.0589 nM
10. B2  0.0484 nM
11. B4  0.0404 nM
12. B17  0.0183 nM
13. B5  0.015 nM
14. B18  0.0119 nM
15. B16  0.0106 nM
16. B9  0.00966 nM
17. B8  0.00812 nM
18. B13  0.00723 nM
